Results reported in the supplement of paper PMC10037445.
The full ranking holds about 2,900 compounds; the median of “NF-kB SEAP reporter activity, fold change vs agonist alone” is about 0.99, and the highest 2% start at about 2.6. The list shows a part of the results.

Columns and labels:
RAW-Dual [1] = test: NF-kB SEAP reporter activity, fold change vs agonist alone; cytotoxicity flag (confluency mask): not cytotoxic; higher = enhanced NF-kB activity
In short: (§1)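 Library stock was pin-tooled at 50 nL into 384-well plates of RAW-Dual macrophages (50,000 cells/well, DMEM), followed 1 h later by a PRR agonist, and the cells were kept at 37 °C, 5% CO2. Supernatant collected after 20 hours was read for IRF by QuantiLuc luminescence and for NF-κB by QuantiBlue absorbance at 620 nm. Reporter activity is fold change over agonist-alone wells, and a well counted as cytotoxic when its IncuCyte confluency was below 70% of agonist controls in both mask sets.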

RAW-Dual [2] = test: NF-kB SEAP reporter activity, fold change vs agonist alone; higher = enhanced NF-kB activity; settings: library stock concentration (final ~1000-fold dilution): 10 mM
In short: as §1

RAW-Dual [3] = test: NF-kB SEAP reporter activity, fold change vs agonist alone; cytotoxicity flag (confluency mask): cytotoxic (confluency <70% of control); higher = enhanced NF-kB activity
In short: as §1

[4] = agonist: ODN 1826 (TLR9) 0.5 ug/mL
[5] = agonist: Pam2CSK4 (TLR2/6) 0.1 ug/mL
[6] = agonist: Pam3CSK4 (TLR2/1) 0.1 ug/mL
[7] = cytotoxicity flag (confluency mask): not cytotoxic, agonist: MPLA (TLR4) […]
[8] = cytotoxicity flag (confluency mask): not cytotoxic, agonist: Imiquimod (TLR7) […]
[9] = cytotoxicity flag (confluency mask): cytotoxic (confluency <70% of control), agonist: MPLA (TLR4) […]

COc1ccc(NC(=O)c2ccc(C(=N)N(C)C)cc2)c(C(=O)Nc2ccc(Cl)cn2)c1.O=C(O)/C=C\C(=O)O (library stock concentration (final ~1000-fold dilution): 10 mM)
NF-kB SEAP reporter activity (RAW-Dual [1]; agonist: LPS (TLR4) 0.1 ug/mL): 0.955 | NF-kB SEAP reporter activity (RAW-Dual [1]; [4]): 0.994 | NF-kB SEAP reporter activity (RAW-Dual [1]; [5]): 1.1 | NF-kB SEAP reporter activity (RAW-Dual [1]; [6]): 1.06

COc1ccc(NC(=O)c2ccc(C(=N)N(C)C)cc2)c(C(=O)Nc2ccc(Cl)cn2)c1.O=C(O)/C=C\C(=O)O
NF-kB SEAP reporter activity (RAW-Dual [2]; [7]): 0.953

CCn1c(=O)c(-c2cc(NC(=O)Nc3ccccc3)c(F)cc2Br)cc2cnc(NC)cc21 (library stock concentration (final ~1000-fold dilution): 10 mM)
NF-kB SEAP reporter activity (RAW-Dual [1]; agonist: LPS (TLR4) 0.1 ug/mL): 0.404 | NF-kB SEAP reporter activity (RAW-Dual [1]; [4]): 0.212 | NF-kB SEAP reporter activity (RAW-Dual [1]; [5]): 0.0771 | NF-kB SEAP reporter activity (RAW-Dual [1]; [6]): 0.143

CCn1c(=O)c(-c2cc(NC(=O)Nc3ccccc3)c(F)cc2Br)cc2cnc(NC)cc21
NF-kB SEAP reporter activity (RAW-Dual [2]; [8]): 0.182 | NF-kB SEAP reporter activity (RAW-Dual [2]; [7]): 0.36

CN(C)CCCCC(=O)Nc1ccc(NC(=S)NC(=O)c2ccc(C(C)(C)C)cc2)cc1.Cl
NF-kB SEAP reporter activity (RAW-Dual [2]; [9]): 2.2

CN(C)CCCCC(=O)Nc1ccc(NC(=S)NC(=O)c2ccc(C(C)(C)C)cc2)cc1.Cl (library stock concentration (final ~1000-fold dilution): 10 mM)
NF-kB SEAP reporter activity (RAW-Dual [3]; agonist: LPS (TLR4) 0.1 ug/mL): 2.04 | NF-kB SEAP reporter activity (RAW-Dual [3]; [4]): 0.456 | NF-kB SEAP reporter activity (RAW-Dual [3]; [5]): 0.827 | NF-kB SEAP reporter activity (RAW-Dual [3]; [6]): 0.635

C=CC1(C)CC(OC(=O)CSC(C)(C)CNC(=O)C(N)C(C)C)C2(C)C(C)CCC3(CCC(=O)C32)C(C)C1O.Cl (centres undefined) (library stock concentration (final ~1000-fold dilution): 10 mM)
NF-kB SEAP reporter activity (RAW-Dual [1]; agonist: LPS (TLR4) 0.1 ug/mL): 1.22 | NF-kB SEAP reporter activity (RAW-Dual [1]; [4]): 0.971 | NF-kB SEAP reporter activity (RAW-Dual [1]; [5]): 0.669 | NF-kB SEAP reporter activity (RAW-Dual [1]; [6]): 0.845

C=CC1(C)CC(OC(=O)CSC(C)(C)CNC(=O)C(N)C(C)C)C2(C)C(C)CCC3(CCC(=O)C32)C(C)C1O.Cl (centres undefined)
NF-kB SEAP reporter activity (RAW-Dual [2]; [8]): 0.86 | NF-kB SEAP reporter activity (RAW-Dual [2]; [7]): 1.25

COc1ccc(CN(CCN(C)C)c2ccccn2)cc1.O=C(O)/C=C\C(=O)O
NF-kB SEAP reporter activity (RAW-Dual [2]; [8]): 1.53 | NF-kB SEAP reporter activity (RAW-Dual [2]; [7]): 1.79

COc1ccc(CN(CCN(C)C)c2ccccn2)cc1.O=C(O)/C=C\C(=O)O (library stock concentration (final ~1000-fold dilution): 10 mM)
NF-kB SEAP reporter activity (RAW-Dual [1]; agonist: LPS (TLR4) 0.1 ug/mL): 1.2 | NF-kB SEAP reporter activity (RAW-Dual [1]; [4]): 0.899 | NF-kB SEAP reporter activity (RAW-Dual [1]; [5]): 1.24 | NF-kB SEAP reporter activity (RAW-Dual [1]; [6]): 0.92

Cc1nc(Nc2ncc(C(=O)Nc3c(C)cccc3Cl)s2)cc(N2CCN(CCO)CC2)n1.Cl (library stock concentration (final ~1000-fold dilution): 10 mM)
NF-kB SEAP reporter activity (RAW-Dual [1]; agonist: LPS (TLR4) 0.1 ug/mL): 0.961 | NF-kB SEAP reporter activity (RAW-Dual [1]; [4]): 0.779 | NF-kB SEAP reporter activity (RAW-Dual [1]; [5]): 0.371 | NF-kB SEAP reporter activity (RAW-Dual [1]; [6]): 0.173

Cc1nc(Nc2ncc(C(=O)Nc3c(C)cccc3Cl)s2)cc(N2CCN(CCO)CC2)n1.Cl
NF-kB SEAP reporter activity (RAW-Dual [2]; [7]): 1.14

Cl.O=C1Cc2cc(CCN3CCN(c4nsc5ccccc45)CC3)c(Cl)cc2N1 (library stock concentration (final ~1000-fold dilution): 10 mM)
NF-kB SEAP reporter activity (RAW-Dual [1]; agonist: LPS (TLR4) 0.1 ug/mL): 0.912 | NF-kB SEAP reporter activity (RAW-Dual [1]; [4]): 0.338 | NF-kB SEAP reporter activity (RAW-Dual [1]; [5]): 0.746 | NF-kB SEAP reporter activity (RAW-Dual [1]; [6]): 0.865

Cl.O=C1Cc2cc(CCN3CCN(c4nsc5ccccc45)CC3)c(Cl)cc2N1
NF-kB SEAP reporter activity (RAW-Dual [2]; [8]): 0.412 | NF-kB SEAP reporter activity (RAW-Dual [2]; [7]): 0.73

CC1(C)CC[C@]2(C(=O)O)[C@H](O)C[C@]3(C)C(=CC[C@@H]4[C@@]5(C)CC[C@H](O)C(C)(C)[C@@H]5CC[C@]43C)[C@@H]2C1
NF-kB SEAP reporter activity (RAW-Dual [2]; cytotoxicity flag (confluency mask): cytotoxic (confluency <70% of control), agonist: Imiquimod (TLR7) […]): 1.09 | NF-kB SEAP reporter activity (RAW-Dual [2]; [9]): 0.979

CC1(C)CC[C@]2(C(=O)O)[C@H](O)C[C@]3(C)C(=CC[C@@H]4[C@@]5(C)CC[C@H](O)C(C)(C)[C@@H]5CC[C@]43C)[C@@H]2C1 (library stock concentration (final ~1000-fold dilution): 10 mM)
NF-kB SEAP reporter activity (RAW-Dual [3]; agonist: LPS (TLR4) 0.1 ug/mL): 0.961 | NF-kB SEAP reporter activity (RAW-Dual [3]; [4]): 0.757 | NF-kB SEAP reporter activity (RAW-Dual [3]; [5]): 0.983 | NF-kB SEAP reporter activity (RAW-Dual [3]; [6]): 0.9

COc1ccc(Cc2cnc(N)nc2N)cc1OC (library stock concentration (final ~1000-fold dilution): 10 mM)
NF-kB SEAP reporter activity (RAW-Dual [1]; agonist: LPS (TLR4) 0.1 ug/mL): 1.36 | NF-kB SEAP reporter activity (RAW-Dual [1]; [4]): 1.01 | NF-kB SEAP reporter activity (RAW-Dual [1]; [5]): 0.82 | NF-kB SEAP reporter activity (RAW-Dual [1]; [6]): 0.946

COc1ccc(Cc2cnc(N)nc2N)cc1OC
NF-kB SEAP reporter activity (RAW-Dual [2]; [7]): 1.09

Nc1ccccc1NC(=O)c1ccc(CNC(=O)OCc2cccnc2)cc1
NF-kB SEAP reporter activity (RAW-Dual [2]; [8]): 0.921 | NF-kB SEAP reporter activity (RAW-Dual [2]; [7]): 1.06

Nc1ccccc1NC(=O)c1ccc(CNC(=O)OCc2cccnc2)cc1 (library stock concentration (final ~1000-fold dilution): 10 mM)
NF-kB SEAP reporter activity (RAW-Dual [1]; agonist: LPS (TLR4) 0.1 ug/mL): 1.22 | NF-kB SEAP reporter activity (RAW-Dual [1]; [4]): 1.02 | NF-kB SEAP reporter activity (RAW-Dual [1]; [5]): 1.07 | NF-kB SEAP reporter activity (RAW-Dual [1]; [6]): 1.14

NC(=O)Cc1cccc(C(=O)c2ccccc2)c1N
NF-kB SEAP reporter activity (RAW-Dual [2]; [8]): 0.906 | NF-kB SEAP reporter activity (RAW-Dual [2]; [7]): 1.02

NC(=O)Cc1cccc(C(=O)c2ccccc2)c1N (library stock concentration (final ~1000-fold dilution): 10 mM)
NF-kB SEAP reporter activity (RAW-Dual [1]; agonist: LPS (TLR4) 0.1 ug/mL): 1.2 | NF-kB SEAP reporter activity (RAW-Dual [1]; [4]): 1.03 | NF-kB SEAP reporter activity (RAW-Dual [1]; [5]): 1.05 | NF-kB SEAP reporter activity (RAW-Dual [1]; [6]): 1.11

CC(C)NCC(O)c1ccc(NS(C)(=O)=O)cc1.Cl (centres undefined) (library stock concentration (final ~1000-fold dilution): 10 mM)
NF-kB SEAP reporter activity (RAW-Dual [1]; agonist: LPS (TLR4) 0.1 ug/mL): 0.93 | NF-kB SEAP reporter activity (RAW-Dual [1]; [4]): 0.904 | NF-kB SEAP reporter activity (RAW-Dual [1]; [5]): 0.933 | NF-kB SEAP reporter activity (RAW-Dual [1]; [6]): 1.08

CC(C)NCC(O)c1ccc(NS(C)(=O)=O)cc1.Cl (centres undefined)
NF-kB SEAP reporter activity (RAW-Dual [2]; [8]): 0.917 | NF-kB SEAP reporter activity (RAW-Dual [2]; [7]): 0.978

CCCCCCCCC/C(=C\C1=C(C)C(=O)C(OC)=C(OC)C1=O)C(=O)O (library stock concentration (final ~1000-fold dilution): 10 mM)
NF-kB SEAP reporter activity (RAW-Dual [1]; agonist: LPS (TLR4) 0.1 ug/mL): 1.04 | NF-kB SEAP reporter activity (RAW-Dual [1]; [4]): 0.868 | NF-kB SEAP reporter activity (RAW-Dual [1]; [5]): 1.01 | NF-kB SEAP reporter activity (RAW-Dual [1]; [6]): 0.87

CCCCCCCCC/C(=C\C1=C(C)C(=O)C(OC)=C(OC)C1=O)C(=O)O
NF-kB SEAP reporter activity (RAW-Dual [2]; [8]): 0.907 | NF-kB SEAP reporter activity (RAW-Dual [2]; [7]): 0.852
